Measurements: the supplement of paper PMC12217912
The list shows a part of the results. The full chains were built here from the parent and the listed change. Values near 0.05 are background.

B1: TEV protease; numbered along this chain (parent)
chain: MGESLFKGPRDYNPISSSICHLTNESDGHTTSLYGIGFGPFIITNKHLFRRNNGTLVVQSLHGVFKVKDTTTLQQHLVDGRDMIIIRMPKDFPPFPQKLKFREPQREERICLVTTNFQTKSMSSMVSDTSCTFPSGDGIFWKHWIQTKDGQCGSPLVSTRDGFIVGIHSASNFTNTNNYFTSVPKNFMELLTNQEAQQWVSGWRLNADSVLWGGHKVFMVKPEEPFQPVKEATQL

Variants of: B1
Test: raw area under fraction-flipped curve 0-4 h after induction (AUC4h, not background-subtracted), DNA-recorder readout of cleavage of the substrate (dimensionless); higher = more cleavage of the substrate by the protease variant
Conditions: temperature: 34 °C; time window: 0-4 h after rhamnose induction
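Also: Bxb1 expression induced with 0.2% (w/v) L-rhamnose at OD600 near 0.5, cultures sampled hourly, flipped fraction per protease–substrate barcode pair counted by paired-end Illumina sequencing.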

| Variant | area with substrate ENLYFQC | area with substrate ENLYFQD | area with substrate ENLYFQE | area with substrate ENLYFQG | area with substrate ENLYFQH | area with substrate ENLYFQI | area with substrate ENLYFQM | area with substrate ENLYFQN | area with substrate ENLYFQP | area with substrate ENLYFQQ | area with substrate ENLYFQR | area with substrate ENLYFQS | area with substrate ENLYFQT | area with substrate ENLYFQW | area with substrate ENLYFQY | area with substrate ENLYFQF | area with substrate ENLYFQK | area with substrate ENLYFQL | area with substrate ENLYFQV |
| --- | --- | --- | --- | --- | --- | --- | --- | --- | --- | --- | --- | --- | --- | --- | --- | --- | --- | --- | --- |
| H143G | 0.0984 | 0.0526 | 0.0499 | 0.0915 | 0.101 | 0.0347 | 0.0768 | 0.0658 | 0.0493 | 0.0624 | 0.0504 | 0.0974 | 0.0487 | 0.0588 | 0.0697 | – | – | – | – |
| V229E | 0.132 | 0.107 | – | – | 0.108 | 0.0619 | 0.0955 | 0.0846 | – | – | – | 0.108 | 0.067 | 0.0584 | 0.0713 | 0.0878 | – | – | – |
| V229K | 0.127 | – | – | – | – | 0.0537 | – | – | 0.0549 | 0.0707 | – | 0.106 | 0.0789 | 0.0662 | – | – | 0.0757 | 0.0677 | 0.0696 |
| C131M | – | 0.0722 | – | – | – | 0.0563 | 0.0872 | 0.0793 | – | 0.0702 | 0.0513 | 0.0962 | – | 0.0477 | 0.0778 | 0.105 | 0.0456 | 0.0589 | 0.0574 |
| K100Y | – | 0.0654 | – | – | 0.0595 | 0.0542 | 0.0711 | 0.0867 | – | – | – | 0.105 | 0.0617 | – | 0.0904 | – | 0.0576 | – | – |
| N116Y | – | 0.0413 | – | 0.0856 | 0.0729 | 0.0757 | 0.0935 | – | 0.0449 | – | – | 0.0955 | – | 0.055 | 0.0644 | – | 0.0768 | 0.0768 | – |
| N116P | 0.133 | 0.0449 | – | 0.0745 | 0.0549 | 0.0508 | 0.0825 | 0.0823 | 0.0415 | – | 0.0653 | 0.0979 | – | 0.0621 | 0.0833 | – | 0.0578 | 0.0597 | 0.0677 |
| I15M | – | 0.0883 | – | 0.0871 | 0.0709 | 0.0488 | 0.08 | 0.068 | 0.0672 | – | – | 0.0989 | 0.0646 | 0.0557 | – | – | 0.0628 | 0.047 | – |
| I164Q | 0.0505 | 0.0554 | – | 0.0632 | 0.0482 | 0.0455 | 0.0624 | 0.0462 | 0.0478 | – | 0.0512 | 0.0531 | 0.0705 | 0.0299 | 0.0522 | 0.0469 | 0.0384 | 0.0455 | 0.0439 |
| E195N | 0.0889 | 0.106 | 0.0537 | 0.104 | – | – | – | 0.0672 | – | – | 0.0473 | 0.102 | 0.0425 | 0.0661 | 0.0905 | – | – | – | 0.0563 |
| M219W | 0.128 | 0.0719 | – | 0.0971 | 0.0876 | 0.0736 | 0.0837 | 0.0733 | – | 0.114 | 0.0643 | 0.101 | 0.0696 | 0.0362 | 0.0888 | 0.065 | 0.0698 | 0.0684 | – |
| Q151T | 0.0933 | 0.0668 | 0.0739 | 0.0895 | 0.0903 | 0.0708 | 0.0786 | 0.0733 | 0.0646 | – | – | 0.0928 | 0.0509 | 0.0499 | – | 0.0574 | 0.0677 | – | 0.0473 |
| Q151Y | 0.106 | – | – | 0.0972 | – | – | 0.0747 | 0.0772 | 0.0834 | 0.0676 | 0.0677 | 0.0808 | 0.0783 | – | 0.0588 | – | 0.0676 | 0.063 | 0.0575 |
| S171C | 0.101 | – | 0.0453 | 0.0529 | 0.0647 | 0.0424 | – | 0.0498 | – | – | – | 0.0807 | – | 0.0456 | – | – | 0.0559 | 0.0518 | – |
| G136D | 0.0839 | – | – | 0.078 | 0.0869 | 0.057 | 0.0836 | 0.0648 | – | – | 0.0611 | 0.103 | 0.0627 | 0.0543 | 0.0608 | – | 0.0635 | 0.0493 | 0.0695 |
| Q118Y | 0.118 | – | – | 0.0682 | 0.0793 | – | – | – | – | – | 0.0571 | 0.102 | 0.105 | – | – | – | – | – | – |
| A207T | 0.088 | 0.0328 | 0.0734 | 0.0976 | 0.0755 | – | 0.0849 | 0.0933 | – | – | 0.0498 | 0.102 | – | 0.0499 | 0.0732 | – | – | 0.0555 | 0.0473 |
| V183A | 0.0952 | – | – | – | 0.095 | – | 0.0654 | 0.0772 | 0.0478 | 0.0886 | 0.0662 | 0.0948 | 0.0571 | 0.0665 | 0.0834 | 0.058 | 0.0641 | 0.0606 | – |
| V183P | – | 0.0693 | 0.0479 | 0.104 | 0.0705 | 0.0733 | 0.067 | 0.0577 | – | 0.0629 | 0.0538 | 0.0941 | 0.0474 | 0.0611 | – | 0.0754 | 0.0541 | – | 0.0496 |
| F133L | 0.0901 | – | – | 0.0994 | – | 0.0599 | 0.103 | 0.0827 | – | – | 0.0652 | 0.117 | 0.0668 | – | – | 0.0589 | – | 0.0539 | – |
| M188S | 0.117 | – | – | 0.0968 | – | 0.0565 | 0.0692 | 0.0609 | – | – | 0.066 | 0.105 | 0.0646 | – | – | – | 0.0702 | – | – |
| T132E | 0.0518 | 0.0428 | – | 0.0602 | 0.0503 | – | 0.0464 | 0.0591 | – | – | 0.0469 | 0.059 | 0.0497 | 0.0477 | 0.0204 | – | 0.0843 | 0.0445 | – |
| A170T | 0.0559 | – | – | – | – | – | – | – | – | – | – | 0.0662 | – | – | – | – | – | – | – |
| S130V | 0.115 | 0.0755 | – | – | 0.0815 | 0.06 | 0.0908 | 0.0908 | 0.0544 | – | 0.0794 | 0.1 | 0.0599 | – | 0.0911 | 0.0967 | 0.0661 | 0.0727 | – |
| D137F | 0.0995 | – | – | 0.0974 | 0.0797 | 0.0449 | – | – | 0.0241 | – | – | 0.0913 | 0.0745 | – | 0.0759 | – | 0.0597 | 0.0525 | – |
| Q234V | 0.101 | – | – | 0.1 | – | 0.0601 | 0.0793 | 0.0818 | – | 0.0688 | 0.0627 | 0.0968 | 0.0614 | – | 0.0835 | 0.0711 | 0.0678 | 0.0564 | 0.0645 |
| G54K | – | 0.0626 | – | 0.193 | 0.0635 | – | 0.0611 | 0.0521 | – | 0.0663 | 0.0582 | 0.0746 | 0.0688 | 0.0529 | – | 0.0509 | – | – | – |
| F187D | 0.045 | 0.0204 | – | – | 0.052 | 0.0484 | 0.0485 | 0.0545 | – | – | 0.0551 | 0.0563 | – | 0.0623 | 0.0535 | 0.054 | – | 0.049 | 0.0531 |
| F187R | 0.0603 | 0.0342 | – | 0.047 | – | 0.0505 | – | 0.0499 | 0.0387 | – | 0.0512 | 0.0514 | 0.0441 | 0.0471 | – | – | 0.0649 | 0.0458 | 0.0713 |
